Laboratory results taken from patent publication US20250163168A1, “NOVEL ANTIBODIES AND ANTIBODY CONJUGATES FOR THE TREATMENT OF METABOLIC DISORDERS” (PFIZER INC., priority 2023, published 2025).

Assays:
[1] = target: human GIPR (hGIPR), full length (human) (UniProt P48546); experiment: cell-based or functional assay
[2] = target: T1, Human GIPR ECD (GIPR extra cellular domain) (human); experiment: SPR (Biacore 8K, 37 C); antibody captured on anti-human IgG, human GIPR ECD as analyte; 1:1 model
T1 sequence: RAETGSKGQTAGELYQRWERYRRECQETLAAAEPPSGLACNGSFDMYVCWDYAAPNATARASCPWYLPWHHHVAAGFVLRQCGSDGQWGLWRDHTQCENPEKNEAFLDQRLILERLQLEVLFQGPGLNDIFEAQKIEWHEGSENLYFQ

B1: benchmark antibody 2G10, the fully human monoclonal anti-GIPR antagonist antibody portion of AMG 133 (maridebart cafraglutide) (antibody, INN chains, looked up, V domains shown)
VH: QVQLVESGGGVVQPGRSLRLSCAASGFTFSNYGMHWVRQAPGEGLEWVAAIWFDASDKYYAD[about 20 residues left out]MNSLRAEDTAVYYCARDQAIFGVVPDYWGQGTLVTVSS
VL: EIVMTQSPATLSVSPGERATLSCRASQSVSSNLAWYQQKPGQAPRLLIYGAATRATGIPARVSGSGSGTEFTLTISSLQSEDFAVYYCQQYNNWPLTFGGGTKVEIK
Human GIPR-CHO cAMP Antagonist Activity IC50 [1]: 30.4 nM | Kd [2]: 19.2 nM
